Laboratory results as given in the supplement of paper PMC10441789.
The list shows a part of the results. Antibody binding of pooled human sera (four to six donors per pool; dilution not stated) to peptides of the Trypanosoma cruzi antigen TSSA on microarrays. Quantile-normalised fluorescence in arbitrary units, mean of duplicate arrays; higher = more binding. No active / inactive call. The uninfected pools are read here as the healthy donors of the same country. The strongest signals lie near the top of the scale (about 60,000).

Columns and labels:
Assay in all cases: antibody binding signal (normalised fluorescence) (arbitrary fluorescence units); higher = stronger serum antibody binding to peptide
[1] = system: pooled sera of chronic Chagas disease patients, Argentina
Procedure: (§1)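 Microarray of 15-residue peptides over residues 30-55 of Trypanosoma cruzi TSSAII, each with 1 to 10 substitutions at naturally variable positions, probed with one serum pool per country.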

[2] = system: pooled sera of chronic Chagas disease patients, Bolivia
Procedure: as §1

[3] = system: pooled sera of chronic Chagas disease patients, Brazil
Procedure: as §1

[4] = system: pooled sera of chronic Chagas disease patients, Colombia
Procedure: as §1

[5] = system: pooled sera of chronic Chagas disease patients, Mexico
Procedure: as §1

[6] = system: pooled sera of chronic Chagas disease patients, USA
Procedure: as §1

[7] = system: pooled sera of uninfected people, Argentina
Procedure: as §1

[8] = system: pooled sera of uninfected people, Bolivia
Procedure: as §1

[9] = system: pooled sera of uninfected people, Brazil
Procedure: as §1

[10] = system: pooled sera of uninfected people, Mexico
Procedure: as §1

[11] = system: pooled sera of uninfected people, USA
Procedure: as §1

Sequence: NKTATGETPSQPGAS
- antibody binding signal [1]: 2350
- antibody binding signal [2]: 9440
- antibody binding signal [3]: 36300
- antibody binding signal [4]: 276
- antibody binding signal [5]: 270
- antibody binding signal [6]: 5830
- antibody binding signal [7]: 555
- antibody binding signal [8]: 2350
- antibody binding signal [9]: 472
- antibody binding signal [10]: 364
- antibody binding signal [11]: 1390

Sequence: TISTPPSGKDNKTAT
- antibody binding signal [1]: 7150
- antibody binding signal [2]: 1690
- antibody binding signal [3]: 3490
- antibody binding signal [4]: 2120
- antibody binding signal [5]: 17000
- antibody binding signal [6]: 2610
- antibody binding signal [7]: 270
- antibody binding signal [8]: 508
- antibody binding signal [9]: 251
- antibody binding signal [10]: 120
- antibody binding signal [11]: 188

Sequence: GTENKTAAGETPSQS
- antibody binding signal [1]: 28400
- antibody binding signal [2]: 1000
- antibody binding signal [3]: 2030
- antibody binding signal [4]: 2260
- antibody binding signal [5]: 2930
- antibody binding signal [6]: 2800
- antibody binding signal [7]: 284
- antibody binding signal [8]: 461
- antibody binding signal [9]: 189
- antibody binding signal [10]: 213
- antibody binding signal [11]: 141

Sequence: KDKKPAAGGTPSQPG
- antibody binding signal [1]: 169
- antibody binding signal [2]: 168
- antibody binding signal [3]: 206
- antibody binding signal [4]: 1680
- antibody binding signal [5]: 203
- antibody binding signal [6]: 339
- antibody binding signal [7]: 201
- antibody binding signal [8]: 72.2
- antibody binding signal [9]: 1610
- antibody binding signal [10]: 189
- antibody binding signal [11]: 108

Sequence: GTENKTATGEAPSQS
- antibody binding signal [1]: 24700
- antibody binding signal [2]: 32900
- antibody binding signal [3]: 25200
- antibody binding signal [4]: 2730
- antibody binding signal [5]: 3800
- antibody binding signal [6]: 22100
- antibody binding signal [7]: 187
- antibody binding signal [8]: 264
- antibody binding signal [9]: 156
- antibody binding signal [10]: 132
- antibody binding signal [11]: 80.4

Sequence: SGTENKTAAGGTPSQ
- antibody binding signal [1]: 28600
- antibody binding signal [2]: 6020
- antibody binding signal [3]: 13400
- antibody binding signal [4]: 7140
- antibody binding signal [5]: 944
- antibody binding signal [6]: 4330
- antibody binding signal [7]: 510
- antibody binding signal [8]: 416
- antibody binding signal [9]: 1060
- antibody binding signal [10]: 2530
- antibody binding signal [11]: 209

Sequence: SGTDKKAAAGEAPSQ
- antibody binding signal [1]: 390
- antibody binding signal [2]: 10400
- antibody binding signal [3]: 13400
- antibody binding signal [4]: 4120
- antibody binding signal [5]: 452
- antibody binding signal [6]: 11000
- antibody binding signal [7]: 119
- antibody binding signal [8]: 164
- antibody binding signal [9]: 169
- antibody binding signal [10]: 883
- antibody binding signal [11]: 125

Sequence: TDKKPAAGETPSQPG
- antibody binding signal [1]: 1190
- antibody binding signal [2]: 2200
- antibody binding signal [3]: 32800
- antibody binding signal [4]: 292
- antibody binding signal [5]: 180
- antibody binding signal [6]: 2930
- antibody binding signal [7]: 117
- antibody binding signal [8]: 386
- antibody binding signal [9]: 187
- antibody binding signal [10]: 143
- antibody binding signal [11]: 129

Sequence: TSSTPPSGKDNKPAT
- antibody binding signal [1]: 18000
- antibody binding signal [2]: 25700
- antibody binding signal [3]: 31000
- antibody binding signal [4]: 685
- antibody binding signal [5]: 23000
- antibody binding signal [6]: 12300
- antibody binding signal [7]: 480
- antibody binding signal [8]: 1060
- antibody binding signal [9]: 198
- antibody binding signal [10]: 185
- antibody binding signal [11]: 277

Sequence: PSGKEKKPAAGGAPS
- antibody binding signal [1]: 9280
- antibody binding signal [2]: 2200
- antibody binding signal [3]: 8060
- antibody binding signal [4]: 10800
- antibody binding signal [5]: 11400
- antibody binding signal [6]: 7870
- antibody binding signal [7]: 332
- antibody binding signal [8]: 355
- antibody binding signal [9]: 118
- antibody binding signal [10]: 88
- antibody binding signal [11]: 189

Sequence: KDNKPATGETPSPPG
- antibody binding signal [1]: 39200
- antibody binding signal [2]: 26100
- antibody binding signal [3]: 37000
- antibody binding signal [4]: 277
- antibody binding signal [5]: 210
- antibody binding signal [6]: 28400
- antibody binding signal [7]: 315
- antibody binding signal [8]: 556
- antibody binding signal [9]: 266
- antibody binding signal [10]: 1620
- antibody binding signal [11]: 1700

Sequence: TDNKTATGETPSPSG
- antibody binding signal [1]: 526
- antibody binding signal [2]: 1610
- antibody binding signal [3]: 2150
- antibody binding signal [4]: 234
- antibody binding signal [5]: 197
- antibody binding signal [6]: 8560
- antibody binding signal [7]: 141
- antibody binding signal [8]: 344
- antibody binding signal [9]: 257
- antibody binding signal [10]: 347
- antibody binding signal [11]: 2710

Sequence: GKENKAAAGEAPSPP
- antibody binding signal [1]: 5150
- antibody binding signal [2]: 1060
- antibody binding signal [3]: 20300
- antibody binding signal [4]: 9850
- antibody binding signal [5]: 8180
- antibody binding signal [6]: 19700
- antibody binding signal [7]: 483
- antibody binding signal [8]: 107
- antibody binding signal [9]: 95.9
- antibody binding signal [10]: 116
- antibody binding signal [11]: 118
